Results on eight molecules are retold here after the supplement of paper PMC4604168 (melanoma cell lines).

The other results are listed elsewhere or left out. Many values rest on one well or one pass, so single values are uncertain.
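Further: cell number obtained by counting DAPI-stained nuclei in high-throughput microscope images with image analysis software, screen run in 1,536-well plates.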

For the assay, the system named is UACC257. Kind of assay: cell count relative to DMSO control; melanoma cells; higher = more viable cells. Particulars: library dose: low library concentration; 72 h.
`Cn1c(Nc2ccc(C(F)(F)F)cc2)nc2cc(Oc3ccnc(-c4ncc(C(F)(F)F)[nH]4)c3)ccc21` + O=C(O)c1ccc(-c2c[nH]c3ncc(-c4ccccc4)cc23)cc1C1CCCC1 [GSK650394] (first compound 0.08 µM, partner dose 0.16 µM) had a cell count of 40.6%.

Consider `OCc1c[nH]c2ccccc12` [Indole-3-carbinol] + CCN(CC)CCCCNc1ncc2cc(-c3cc(OC)cc(OC)c3)c(NC(=O)NC(C)(C)C)nc2n1 [PD173074] (first compound 0.8 µM, partner dose 0.1 µM), for which the cell count was determined as 85.6%.

For `Clc1ccc(Nc2nnc(Cc3ccncc3)c3ccccc23)cc1` [vatalanib] + O=C(Nc1ccccc1)c1cc([N+](=O)[O-])ccc1Cl [GW9662] (first compound 2 µM, partner dose 2 µM), the cell count stood at 87.2%.

Molecule `Cn1c(Nc2ccc(C(F)(F)F)cc2)nc2cc(Oc3ccnc(-c4ncc(C(F)(F)F)[nH]4)c3)ccc21` + C=CCn1c(=O)c2cnc(Nc3ccc(N4CCN(C)CC4)cc3)nc2n1-c1cccc(C(C)(C)O)n1 [MK1775] (first compound 0.08 µM, partner dose 0.02 µM) returned a cell count of 31.2%.

`OCc1c[nH]c2ccccc12` [Indole-3-carbinol] + CN(C)S(=O)(=O)c1ccc2c(c1)/C(=C/c1cc3c([nH]1)CCCC3)C(=O)N2 [SU6656] (first compound 0.8 µM, partner dose 0.4 µM) registered a cell count of 97.4%.

Molecule `COCC[n+]1c2c(n(Cc3cnccn3)c1C)C(=O)c1ccccc1C2=O` + NC(=O)Nc1cc(-c2cccc(F)c2)sc1C(=O)N[C@H]1CCCNC1 [AZD7762] (first compound 0.0004 µM, partner dose 0.02 µM) returned a cell count of 116%.

The molecule `Nc1cccc2c1CN(C1CCC(=O)NC1=O)C2=O` (stereo not drawn) [lenalidomide] + O=C(O)c1ccc(-c2c[nH]c3ncc(-c4ccccc4)cc23)cc1C1CCCC1 [GSK650394] (first compound 1 µM, partner dose 0.16 µM) registered a cell count of 92.2%.

`COCC[n+]1c2c(n(Cc3cnccn3)c1C)C(=O)c1ccccc1C2=O` + Cn1cncc1[C@@](N)(c1ccc(Cl)cc1)c1ccc2c(c1)c(-c1cccc(Cl)c1)cc(=O)n2C [tipifarnib] (first compound 0.0004 µM, partner dose 0.01 µM) came in with a cell count of 109%.
